Experimental data taken from the supplement of paper PMC3334620.
The full ranking holds about 33,000 sequences; the median of “E-score (-0.5 to 0.5)” is about -0.012, and the highest 2% start at about 0.29. Some of the results follow.

These sequences were tested against T1, Ybr033w (UniProt P38073) (assay: PBM E-score (8-mer binding enrichment) (E-score (-0.5 to 0.5)); higher = stronger / more preferred TF binding; most listed sequences are background and not binding sites). Conditions: protein concentration: 200 nM; construct: GST-full length.
T1 sequence: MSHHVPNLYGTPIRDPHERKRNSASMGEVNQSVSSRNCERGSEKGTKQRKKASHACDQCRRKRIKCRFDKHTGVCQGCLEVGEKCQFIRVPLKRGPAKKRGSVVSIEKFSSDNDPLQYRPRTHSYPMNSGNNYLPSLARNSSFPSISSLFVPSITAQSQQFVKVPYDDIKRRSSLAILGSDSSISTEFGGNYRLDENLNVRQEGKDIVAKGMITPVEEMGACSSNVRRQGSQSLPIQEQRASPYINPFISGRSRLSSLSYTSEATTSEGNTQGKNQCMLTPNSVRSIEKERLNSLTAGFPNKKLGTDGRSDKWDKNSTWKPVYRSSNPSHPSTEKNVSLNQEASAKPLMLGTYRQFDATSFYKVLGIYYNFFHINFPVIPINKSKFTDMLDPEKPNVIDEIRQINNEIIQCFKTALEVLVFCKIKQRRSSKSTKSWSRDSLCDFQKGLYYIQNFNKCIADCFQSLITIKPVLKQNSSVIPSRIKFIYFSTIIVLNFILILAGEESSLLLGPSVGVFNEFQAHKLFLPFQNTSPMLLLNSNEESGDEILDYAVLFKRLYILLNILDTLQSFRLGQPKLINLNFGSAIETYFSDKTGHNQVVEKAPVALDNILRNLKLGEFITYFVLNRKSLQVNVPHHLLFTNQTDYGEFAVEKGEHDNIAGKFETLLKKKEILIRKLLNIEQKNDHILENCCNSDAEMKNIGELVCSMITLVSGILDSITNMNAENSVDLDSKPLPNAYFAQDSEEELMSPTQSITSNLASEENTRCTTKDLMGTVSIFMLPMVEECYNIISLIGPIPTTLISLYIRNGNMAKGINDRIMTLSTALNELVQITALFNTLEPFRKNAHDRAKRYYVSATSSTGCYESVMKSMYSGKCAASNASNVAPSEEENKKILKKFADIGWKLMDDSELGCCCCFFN
In short: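 Bound GST-tagged yeast transcription factors, applied at about 100-200 nM to double-stranded universal all-10-mer Agilent arrays, were detected with fluorescent anti-GST. Scans were normalised with masliner. A modified Wilcoxon-Mann-Whitney statistic, the E-score, was assigned to each ungapped eight-base word pooled with its reverse complement by the Universal PBM Analysis Suite.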

| Sequence | PBM E-score |
| --- | --- |
| AGTAGCAC | -0.0755 |
| TCATGGAA | 0.154 |
| GGAACTCA | 0.0469 |
| ACATGGGT | -0.0816 |
| TCATAGGA | 0.0261 |
| AAGGATAG | 0.0976 |
| CTGACCGC | -0.181 |
| CTGGCTTC | -0.174 |
| ACGAAAAC | 0.166 |
| CTATCGTC | -0.0866 |
| CAAAACTG | 0.146 |
| ATCCCAAC | 0.079 |
| AAGCGGCT | -0.109 |
| AAAGTCGT | 0.0565 |
| ACATGCCG | -0.09 |
| TATGGGGA | 0.0807 |
| AAGGACGT | -0.0394 |
| ATCATAGA | 0.209 |
| ATCGGTAC | -0.0348 |
| TAGCGCTA | -0.136 |
| ATTAAACG | 0.27 |
| CGACTGCC | -0.0953 |
| GACCTTCA | -0.0804 |
| ACAGCTCG | -0.0436 |
| ACAGGCGA | -0.149 |

| Sequence | PBM E-score |
| --- | --- |
| CTAGTAAA | 0.242 |
| AAGACTAA | 0.0332 |
| GTTTAAAA | 0.122 |
| AATGTGAG | 0.0512 |
| TGATGGAA | 0.124 |
| ATGTCACA | 0.116 |
| AGCAGCCG | -0.0763 |
| AGAATGCG | -0.0351 |
| ATCTCGCA | 0.0867 |
| TCAGCCAA | 0.07 |
| AAGTGACC | -0.114 |
| ATGTTGGC | -0.0279 |
| CGAAGGCA | 0.0306 |
| CGCGTCAC | -0.0843 |
| CTCTTGGC | -0.203 |
| CCTTTGAC | -0.147 |
| GAAGCTGC | 0.0103 |
| CCAACTTA | 0.0701 |
| GCCATTGA | 0.152 |
| ATTTCAGG | 0.0825 |
| CGCACTGA | -0.137 |
| ACAGGACA | 0.139 |
| GCTAAGGA | -0.106 |
| ACCCGCCG | 0.0442 |
| CGACAGCG | -0.0586 |

| Sequence | PBM E-score |
| --- | --- |
| TACGAATA | 0.238 |
| AGGCATTG | -0.118 |
| ACACCCAA | 0.0863 |
| AGTATCGA | 0.176 |
| GGACACTA | -0.179 |
| ACTTTTGC | 0.172 |
| ACCTGTTA | -0.0213 |
| CTCACCGA | 0.00035 |
| GTACCTAC | -0.178 |
| AGACTAGC | -0.208 |
| CTAGCGTA | -0.25 |
| AAGTTGCT | 0.0671 |
| TCCTGGAA | 0.0317 |
| GATGTATA | 0.227 |
| ACTACTCC | 0.0891 |
| CCCACACC | -0.131 |
| GGTGTTCA | -0.0763 |
| AGGTGACC | -0.222 |
| CGAGCTGA | 0.0131 |
| AGCAGCAT | -0.0509 |
| AATCGAGC | -0.0323 |
| ACACCAAG | 0.0498 |
| CTGACGGA | 0.00252 |
| CCAAGGGA | -0.0642 |
| ACCGACGC | -0.132 |

| Sequence | PBM E-score |
| --- | --- |
| CCGCGTAC | -0.0588 |
| AACTTCTG | 0.0469 |
| CCTTCACA | 0.0915 |
| CACGGCGA | -0.0518 |
| ATGAATCG | -0.041 |
| GAAAGCAC | 0.101 |
| GATTACGA | 0.169 |
| AGCGGGAC | -0.315 |
| ACACTTAG | 0.0216 |
| GCAGTGGA | 0.0557 |
| GACTGCCC | -0.243 |
| GATGGAGC | -0.0687 |
| AAGGCTAA | 0.0695 |
| ACATTCTG | 0.0795 |
| CAAGAGTC | 0.028 |
| CCCAGATC | -0.261 |
| GTTTGTAA | 0.209 |
| CAGACAAA | -0.029 |
| CACTGGGG | -0.275 |
| ATGGAAAC | -0.0483 |
| GCATAACC | 0.00111 |
| ATACCCGG | -0.222 |
| CCTGCAGA | -0.14 |
| GCGTCGTA | 0.104 |
| CACAATGC | 0.181 |

| Sequence | PBM E-score |
| --- | --- |
| AACCGCCC | -0.124 |
| CTACACAA | 0.137 |
| GGCACCCA | -0.139 |
| CCTCCATA | -0.0725 |
| ATAGCCGG | -0.0746 |
| CCTAACTA | 0.221 |
| CGCTCCCA | -0.0614 |
| CGAGTTAG | -0.123 |
| GACAGGGA | -0.0395 |
| AAAGCGTT | 0.036 |
| CCCGTAGG | -0.276 |
| ATGGCCCG | -0.153 |
| AAGGCTCA | -0.127 |
| AAGTTGCC | -0.108 |
| GCTGACAC | -0.164 |
| ACATCATG | -0.0496 |
| CATTCGTA | 0.0238 |
| AGGGGTCA | -0.115 |
| TACTCTAA | 0.145 |
| CAGGCGAA | -0.0707 |
| AGCGGGGG | -0.41 |
| AATAGTAA | 0.239 |
| GCGATAAA | 0.0393 |
| CGGCGAGC | -0.204 |
| ACTGGGAG | -0.215 |

| Sequence | PBM E-score |
| --- | --- |
| AGAGCCCT | -0.199 |
| TGACGGAA | 0.119 |
| CCTGCAAG | -0.236 |
| CGAAGACA | -0.123 |
| AGGCACTG | 0.0625 |
| CCACTGGC | -0.111 |
| GCAAATTA | 0.106 |
| AACGCGCT | 0.0416 |
| CACGGCTA | -0.132 |
| AGGGCTAA | -0.0933 |
| ACTAGCTA | 0.0556 |
| ACGAGAGC | -0.134 |
| GCGAGATA | 0.0981 |
| AACTATCG | 0.15 |
| CTATGACC | -0.0416 |
| TCGGACCA | 0.0418 |
| GACTAGGA | -0.00351 |
| CGATCAAG | 0.0963 |
| AGTTACTA | 0.0545 |
| GAGCAACA | -0.0784 |
| CTGGCCTA | -0.0592 |
| AGTTCTTC | 0.3 |
| ATCTTTTG | 0.15 |
| ACTACACG | -0.0624 |
| GCGCTTTA | -0.00582 |

| Sequence | PBM E-score |
| --- | --- |
| CCTTTCGA | -0.0776 |
| CGCTTCAA | 0.0406 |
| GGGGACTA | -0.254 |
| CTGGTACA | -0.0259 |
| GGGAACCA | -0.224 |
| GAAAGGCC | -0.253 |
| CAAAACAG | 0.22 |
| GAAGTCGA | -0.0021 |
| AACTGTTG | 0.0201 |
| GATTCCCC | -0.143 |
| ATGGTTTG | 0.0708 |
| AAGCCGCA | -0.0894 |
| ATAGCAGA | 0.0243 |
| GCTCTCAA | -0.044 |
| AGCCAAGC | -0.221 |
| GGGTGCCA | -0.0919 |
| TGCTCCCA | -0.0244 |
| AGCCACCG | -0.143 |
| CTAGGTCC | -0.175 |
| GAACACCC | 0.00549 |
| GCGACAGA | 0.0317 |
| CTACAAAA | 0.00298 |
